Hit rate of the full screen: of about 110,000 compounds, about 230 (0.21%) showed an effect of 50% or more. Some of the results follow.
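Note: 30 min substrate incubation versus DMSO and 10 µM JCP410 controls.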

The target in the experiment is DPAP1 (Plasmodium falciparum, UniProt Q8IIJ9). Description: primary screen, percent inhibition; read by cleavage of a fluorogenic dipeptide substrate; higher = more effect of the substance. Further details: species or system P. falciparum D10 trophozoite lysates; single well.
DPAP1, sequence (Q8IIJ9 whole entry, looked up): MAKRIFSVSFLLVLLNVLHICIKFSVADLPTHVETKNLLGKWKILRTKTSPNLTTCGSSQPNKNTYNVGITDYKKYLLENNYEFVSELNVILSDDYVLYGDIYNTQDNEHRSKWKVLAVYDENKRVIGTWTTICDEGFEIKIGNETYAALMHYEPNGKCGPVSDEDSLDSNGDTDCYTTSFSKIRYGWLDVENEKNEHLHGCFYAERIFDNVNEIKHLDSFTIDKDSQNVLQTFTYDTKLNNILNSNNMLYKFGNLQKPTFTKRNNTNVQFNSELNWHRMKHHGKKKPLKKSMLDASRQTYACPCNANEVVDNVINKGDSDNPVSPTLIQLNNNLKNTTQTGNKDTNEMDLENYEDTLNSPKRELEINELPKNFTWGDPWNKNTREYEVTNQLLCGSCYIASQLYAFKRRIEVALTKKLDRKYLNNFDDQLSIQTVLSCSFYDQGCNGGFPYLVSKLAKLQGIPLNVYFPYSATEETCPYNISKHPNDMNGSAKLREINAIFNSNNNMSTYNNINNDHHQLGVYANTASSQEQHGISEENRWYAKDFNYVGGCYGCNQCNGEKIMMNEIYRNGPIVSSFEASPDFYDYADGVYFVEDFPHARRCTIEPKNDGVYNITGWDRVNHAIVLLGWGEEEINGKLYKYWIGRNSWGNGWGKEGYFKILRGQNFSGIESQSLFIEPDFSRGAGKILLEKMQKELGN
Turning to `N#CC1=C(N)OC2=C(C(=O)CC(c3ccccc3)C2)C1c1cccc2ccccc12` (stereo not drawn), the “% Inhibition @ 10 uM” value is reported as 7.65%.

On to `Cc1nc2nc(-c3ccccc3)nn2c(O)c1Cc1ccccc1`, for which the “% Inhibition @ 10 uM” value is given as -2.4%.

As to `O=C(Nc1cccc(Br)c1)C1CCN(S(=O)(=O)c2cc(Cl)ccc2Cl)CC1`, the “% Inhibition @ 10 uM” value is recorded as -3.05%.

`Fc1ccccc1N1CCN(Cc2cccc(Cl)c2)CC1`: the “% Inhibition @ 10 uM” value turned out to be 1.55%.

`Cc1cc(C)n2nc(NC(=O)CCc3ccccc3)nc2n1`: the “% Inhibition @ 10 uM” value stood at 0.401%.

`CC(C)(C)c1oc(C(=O)O)cc1CN1CCCC1`: the “% Inhibition @ 10 uM” value was -3.65%.

Take `CCc1nnc(SCC(=O)N(CC)Cc2ccccc2)c2cc3sc(C)cc3n12`: the “% Inhibition @ 10 uM” value is -10.2%.

For `Cc1cc(-c2nc3ccccc3[nH]2)c2ccccc2n1`, the “% Inhibition @ 10 uM” value came to 4.7%.

As for `Cc1ccc(CS(=O)Cc2ccc(C(=O)NCC(C)c3ccccc3)o2)cc1` (stereo not drawn), the “% Inhibition @ 10 uM” value is recorded as -5.37%.

As for `CCCCNS(=O)(=O)c1ccc(C)c([N+](=O)[O-])c1`, the “% Inhibition @ 10 uM” value is reported as 0.962%.

For the molecule `Cc1c(-c2nsc(NC(=O)c3ccccc3)n2)nnn1-c1ccccc1F`, the “% Inhibition @ 10 uM” value is reported as -5.47%.

For `CCOc1ccc(Cc2[nH]nc3c2C(=O)CCC3)cc1OCC`, the “% Inhibition @ 10 uM” value is on record as -4.49%.

On to `COc1ccc(S(=O)(=O)N2CN3CCN(C3)C2)cc1`, for which the “% Inhibition @ 10 uM” value is -3.14%.

For `Cc1ccc(C2=NN(CCC(=O)NC(C)c3ccccc3)C(=O)CC2)cc1` (stereo not drawn), the “% Inhibition @ 10 uM” value was -1.79%.

Take `CCn1cc2c(n1)-c1c(oc(C(=O)NCc3cc(Br)ccc3OC)c1C)CC2`: the “% Inhibition @ 10 uM” value came out at 4.33%.

Take `CCc1ccc(/C=N\n2cnnc2)cc1`: the “% Inhibition @ 10 uM” value is given as 6.23%.

Turning to `Cc1cc(SCC(C)C)n2ncnc2n1`, the “% Inhibition @ 10 uM” value is listed as -0.446%.

For the molecule `CC1(C)CC(=O)C2=C(C1)N(CC1CCCO1)C(=O)C2(NC(=O)c1cccs1)C(F)(F)F` (stereo not drawn), the “% Inhibition @ 10 uM” value was -1.28%.

Consider `O=[N+]([O-])c1ccc(N2CCN(Cc3ccc(C(F)(F)F)cc3)CC2)cc1`, for which the “% Inhibition @ 10 uM” value is listed as -0.294%.

As to `Cc1ccc(NC(=O)C(C)Oc2ccccc2F)c(C)c1` (stereo not drawn), the “% Inhibition @ 10 uM” value was 0.291%.

Take `CCc1ccc(-n2nc(C)c3c(C)cc(=O)n(CC(=O)N(CC)CC)c32)cc1`: the “% Inhibition @ 10 uM” value amounted to 4.32%.

As for `O=C(NCCN1CCN(Cc2ccccc2)CC1)c1cc2c(s1)-c1ccccc1OC2`, the “% Inhibition @ 10 uM” value was -4.85%.

`Cc1ccc(-c2ccccc2)n1-c1ccc(O)c(C(=O)O)c1`: the “% Inhibition @ 10 uM” value is given as 0.408%.

On to `O=C(c1ccccc1Cl)N1N=C(c2ccccc2)CC1c1ccco1` (stereo not drawn), for which the “% Inhibition @ 10 uM” value is given as -9.82%.

Turning to `COc1cccc(Oc2c(C)oc3cc(O)ccc3c2=O)c1`, the “% Inhibition @ 10 uM” value is reported as -2.91%.

As for `CN(C)CCCSC(c1ccccc1)c1ccccc1`, the “% Inhibition @ 10 uM” value was -4.48%.

`CC(C)C(=O)N1c2ccccc2N=C2CC(C)(C)CC(O)=C2C1c1ccc(N(C)C)cc1` (stereo not drawn): the “% Inhibition @ 10 uM” value is -3.44%.

In the case of `O=C1C2C3C=CC(CO)(O3)C2C(=O)N1c1ccc(Cl)c(Cl)c1` (stereo not drawn), the “% Inhibition @ 10 uM” value is -4.72%.

As for `CCOC(=O)N1CCC(NC(=O)C2CCCN(c3nn4c(=O)cc(C)nc4s3)C2)CC1` (stereo not drawn), the “% Inhibition @ 10 uM” value is on record as -0.281%.

Turning to `CCc1ccc(NC(=O)C(C)Oc2cccc(C)c2)cc1` (stereo not drawn), the “% Inhibition @ 10 uM” value was -1.24%.

In the case of `CN1CCC2(CC1)N=C(c1ccccc1)C(c1ccccc1)=N2`, the “% Inhibition @ 10 uM” value was -3.75%.

For the molecule `COc1ccccc1C1=NC(C(F)(F)F)(C(F)(F)F)N=C(N2CCOCC2)O1`, the “% Inhibition @ 10 uM” value worked out at 3.36%.

With `O=C(O)Cn1cc(C(=O)C2CCCCC2)c2ccccc21`, the “% Inhibition @ 10 uM” value was -3.13%.

Turning to `Cc1sc(NC(=O)COc2ccc(Cl)cc2)c(C(N)=O)c1C`, the “% Inhibition @ 10 uM” value stood at 2.13%.

In the case of `CC(C)(C)NC(=O)Cn1ncc2c3ccccc3n(Cc3ccccc3)c2c1=O`, the “% Inhibition @ 10 uM” value is -1.58%.

For the molecule `COc1cccc(C2C3=C(O)CC(c4cccs4)CC3=NC(C)=C2C(=O)OCC(C)C)c1` (stereo not drawn), the “% Inhibition @ 10 uM” value is 3.87%.

Take `Cc1nc2c(c(C)c1CCC(=O)NCCc1ccc(Cl)cc1)c(=O)n(C)c(=O)n2C`: the “% Inhibition @ 10 uM” value came to 3.75%.

Take `Clc1ccc2[nH]c(N3CCCCC3)nc2c1`: the “% Inhibition @ 10 uM” value is given as 0.345%.

As to `Cc1ccsc1C1CC(=O)NC(SCC(N)=O)=C1C#N` (stereo not drawn), the “% Inhibition @ 10 uM” value was determined as 0.121%.

As to `O=C(Cc1ccccc1Cl)N1CCC(c2nc(O)c3nnn(Cc4ccccc4)c3n2)CC1`, the “% Inhibition @ 10 uM” value is 0.558%.

Take `CCCCC1CCC(c2nc(-c3ccc(Br)cc3)no2)CC1` (stereo not drawn): the “% Inhibition @ 10 uM” value is recorded as 6.06%.

On to `Cc1sc(NC(=O)C2CCCCC2C(=O)O)c(C(N)=O)c1-c1ccc(C(C)(C)C)cc1` (stereo not drawn), for which the “% Inhibition @ 10 uM” value was found to be 17%.

With `COc1ccc(CC(=O)N2CCc3ccccc3C2)cc1`, the “% Inhibition @ 10 uM” value is -1.62%.

Consider `COCCCNC(=O)C1CC(=O)N(CCc2ccccc2)C1` (stereo not drawn), for which the “% Inhibition @ 10 uM” value is on record as 3.04%.

On to `Cc1ccc(-n2nc(C)c(/C=N/c3ccc4[nH]c(C)nc4c3)c2O)cc1`, for which the “% Inhibition @ 10 uM” value was found to be 2.69%.

Regarding `C=CCNc1oc(COc2cccc(Cl)c2)nc1C#N`, the “% Inhibition @ 10 uM” value is 2.46%.

With `CC(C)(C)OC(=O)NCC12C=CC(O1)C1C(=O)N(Cc3ccccc3)C(=O)C12` (stereo not drawn), the “% Inhibition @ 10 uM” value stood at 1.7%.

Turning to `COc1ccc(/C=C(\C#N)C(=O)Nc2nccs2)cc1`, the “% Inhibition @ 10 uM” value is listed as 1.37%.

On to `COc1ccc(CNc2nc(-c3ccco3)nn2S(=O)(=O)c2ccc(Cl)cc2)cc1`, for which the “% Inhibition @ 10 uM” value is reported as -6.98%.

As to `CC1CCN(c2nc3ccc(C(=O)c4ccccc4)cc3n3cnnc23)CC1`, the “% Inhibition @ 10 uM” value was 1.4%.

Take `O=C(CCN1C(=O)c2ccccc2Sc2ncccc21)NCCCc1ccccc1`: the “% Inhibition @ 10 uM” value is given as -8.19%.

In the case of `CCOc1ccc(C(=O)N(Cc2ccc(C)o2)C2CCS(=O)(=O)C2)cc1` (stereo not drawn), the “% Inhibition @ 10 uM” value stood at 8.19%.

Regarding `COc1ccc(-c2cc(C(F)F)n3ncc(C(=O)N4CCN(Cc5ccccc5)CC4)c3n2)cc1`, the “% Inhibition @ 10 uM” value amounted to 0.778%.

On to `Cc1onc(-c2ccccc2Cl)c1C(=O)NCCNC(=O)c1c(-c2ccccc2Cl)noc1C`, for which the “% Inhibition @ 10 uM” value is 0.331%.

As to `CCN1C(=O)C(=CNc2ccc(Cl)cc2C(=O)c2ccccc2)C(=O)N(CC)C1=O`, the “% Inhibition @ 10 uM” value was -0.898%.

For `CCN1CCN(Cc2ccc(F)c(Br)c2)CC1`, the “% Inhibition @ 10 uM” value was 2.33%.

Regarding `Cc1nc2c(C(=O)N3CCCCC3)cnn2c(O)c1Cc1ccccc1F`, the “% Inhibition @ 10 uM” value is reported as -3.36%.

As for `CCOc1ccc(CCNC(=O)c2ccc3nc(CC)c(CC)nc3c2)cc1OCC`, the “% Inhibition @ 10 uM” value is 3.26%.

Regarding `CCOc1ccc(NC(=O)c2c(NC(=O)CC)sc3c2CCC(C)C3)cc1` (stereo not drawn), the “% Inhibition @ 10 uM” value was 2.13%.

Turning to `COc1ccc(/C=C2\C(=O)N(c3ccccc3)C(c3ccccc3)S2(=O)=O)cc1` (stereo not drawn), the “% Inhibition @ 10 uM” value worked out at 2.38%.

`Nc1nc(CS(=O)(=O)c2ccc(Br)cc2)cs1`: the “% Inhibition @ 10 uM” value came out at 2.6%.

As for `CC(NC(=O)Cn1ncn2cccc2c1=O)c1ccccc1` (stereo not drawn), the “% Inhibition @ 10 uM” value is reported as -7.17%.

In the case of `COc1cc(OC)cc(-c2cc3nc(C)c(CCC(=O)NCc4ccc5c(c4)OCO5)c(C)n3n2)c1`, the “% Inhibition @ 10 uM” value is listed as 1.26%.

The values are drawn from PMC6919601, “Identification of Plasmodium dipeptidyl aminopeptidase allosteric inhibitors by high throughput screening” (PLoS ONE, 2019).
